Screen size: about 50,000 compounds; about 800 (1.6%) showed an effect of 50% or more. Some of the results follow.
The compounds below were run against Bcl-2-like protein 10 (Homo sapiens) (UniProt Q9HD36) (assay: Phenotype converters, Bcl-B/TR3 peptide binding displacement, primary biochemical FP (AID 1240;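 note: 0% = Bcl-B with tracer peptide and DMSO and 100% = tracer peptide lacking Bcl-B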)). Conditions: GST-Bcl-B / FITC-TR3 peptide fluorescence polarization; stronger effect = higher value; compound at 3.75 mg/L.
UniProt Q9HD36, sequence (Q9HD36 whole entry, looked up): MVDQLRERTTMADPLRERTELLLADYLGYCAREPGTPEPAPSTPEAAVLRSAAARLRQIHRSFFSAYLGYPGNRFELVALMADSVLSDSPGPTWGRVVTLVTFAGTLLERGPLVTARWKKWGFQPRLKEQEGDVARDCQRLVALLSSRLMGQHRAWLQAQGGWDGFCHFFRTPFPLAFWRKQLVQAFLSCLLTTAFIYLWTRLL

SMILES	displacement [%]
CC1=NN(c2ccccc2)C(=O)C1C=C1C(=O)NC(=O)NC1=O (configuration not stated)	-5.2
N#Cc1c(NC(=O)CCCN2C(=O)c3ccccc3C2=O)sc2c1CCCC2	9.7
CCc1ccc(/C=C2/C(=O)NC(=O)N2C(C)=O)cc1	13.8
COc1ccc(/C=C2\SC(=S)N(NC(=O)c3cccnc3)C2=O)cc1	3.4
CCCC(=O)Nc1cccc(NC(=O)c2ccccc2I)c1	3.7
O=[N+]([O-])c1ccc(Cl)c(-n2ncnc2-c2ccc(F)cc2)c1	0.8
CC1CN(C(=O)c2c(Cl)cccc2Cl)CC(C)O1 (configuration not stated)	-7.8
CC(=O)Oc1cccc(/C=C2\C=C(c3ccc(C)cc3)OC2=O)c1	7
C=C(C)C(=O)OCn1c2ccccc2c2cc([N+](=O)[O-])ccc21	6.3
CC1=NN(c2ccc(S(N)(=O)=O)cc2)C(=O)/C1=C\c1ccc(-c2ccc(C(=O)OC(C)C)cc2)o1	8.3
C/C(=N/N=C1/c2ccccc2C(=O)C1C(=O)C(c1ccccc1)c1ccccc1)c1cccs1 (configuration not stated)	11
Cc1ccc2[nH]c3c(c2c1)CCN(C)C3	-13.5
NS(=O)(=O)c1cccc(NC(=O)c2cc3ccccc3o2)c1	4.5
O=C1/C(=C/c2ccc(Cl)c(Cl)c2)SC(=S)N1Cc1ccco1	14.2
CCOC(=O)Cc1csc(NC(=O)c2cccc(F)c2)n1	-18.5
Cc1cc(NC(=O)c2ccccc2[N+](=O)[O-])no1	-9.2
COc1ccc(CCN=Cc2c(O)n(-c3c(Cl)cccc3Cl)c3ccccc23)cc1OC	-6
Cc1ccc(-c2noc(-c3cccs3)n2)cc1	-1.6
Cc1cccc(OCC(=O)Nc2cccc(I)c2)c1	0
O=C(N/C(=C/c1cccc(Br)c1)C(=O)N1CCCCCC1)c1ccccc1	-8.5
CC(C)OC(=O)c1sc2cc([N+](=O)[O-])ccc2c1Cl	11.5
CCC(=O)Nc1ccc(NC(=O)/C=C/c2ccc(-c3ccc(Cl)cc3Cl)o2)cc1	-14.5
Cc1ccc2nsnc2c1NC(=O)C(c1ccccc1)c1ccccc1	0.6

SMILES	displacement [%]
O=c1c(C=NCc2ccco2)c(-c2ccccc2)[nH]n1-c1nc2ccccc2s1	-6.7
Cc1cc(C)nc(NC(=O)/C=C/c2ccc(Cl)cc2Cl)c1	-0.3
COc1ccc(C2=C/C(=C/c3ccc([N+](=O)[O-])cc3)C(=O)O2)c(OC)c1	8.9
CCOC(=O)c1c(-c2ccc(C)cc2)csc1NC(=O)C1CC=CCC1C(=O)O (configuration not stated)	-6
CCOC(=O)c1c(-n2c(C)cc(C=O)c2C)sc2c1CCCC2	3.7
COc1ccc(-c2cc(C(F)(F)F)n3ncc(C(=O)NCCCN4CCOCC4)c3n2)cc1	3.8
COc1ccc(Br)cc1/C=C1/SC(=S)N(Cc2ccccc2)C1=O	12.1
CC1=NN(c2ccccc2)C(=O)/C1=C\c1cccnc1	-8.9
COc1ccc(C)cc1NC(=O)C(=O)NCC1CCCO1 (configuration not stated)	-15.6
Cc1ccccc1C(=O)Nc1sc2c(c1C(=O)N1CCN(C)CC1)CCCC2	4.5
Cc1cc(NC(=O)c2ccccc2I)ccc1-c1cc2ccccc2oc1=O	14.9
CC(=O)C1C(c2ccccc2F)c2c(noc2C)CC1(C)O (configuration not stated)	-0.1
NC(=O)c1c(NC(=O)CCC(=O)O)sc2c1CCCC2	8
Cc1ccc(N(CC(=O)NCc2ccncc2)S(C)(=O)=O)cc1	13.1
CCOC(=O)c1ccc(NC2C=CS(=O)(=O)C2)cc1 (configuration not stated)	16.1
CCN(CC)c1ccc(C=Nc2ccc(I)cc2)c(O)c1	5.3
O=C(c1cc2cc(Br)ccc2oc1=O)N1CCCCCC1	-14.2
COc1ccc(NC(=O)Cc2ccc(Cl)cc2)cc1OC	-0.7
Cc1nnc(C)n1/N=C/c1cccs1	12.4
Cc1c(N2C(=O)c3ccccc3C2=O)cccc1[N+](=O)[O-]	5.5
COc1cc(/C=C2\C(=O)NC(=O)N(c3cccc(C)c3)C2=O)c([N+](=O)[O-])cc1OC	4.1
CCOC(=O)CNC(=O)c1ccc(OC)cc1	17.5
C=CCN1C(=O)/C(=C\c2ccc(-c3ccc(C)cc3Br)o2)C(=O)NC1=S	-5.4

SMILES	displacement [%]
O=C(/C=C/c1ccc(-c2cc(Cl)ccc2Cl)o1)c1ccco1	126
COc1ccc(Cl)cc1C(=O)Nc1ccc(C)c(Cl)c1	7.1
Cc1nonc1NC1(O)C(=O)c2ccccc2C1=O	-12.2
Cc1ccc(S(=O)(=O)N2CCCCC2C)cc1 (configuration not stated)	-7.8
Nc1ccc(C(=O)Nc2ccc(N)cc2NC(=O)c2ccc(N)cc2)cc1	-14
Nc1cn(C2OC(CO)C(O)C(O)C2O)c(=O)[nH]c1=O (configuration not stated)	9.8
O=C1NC(=O)/C(=C/c2ccc(-c3ccc(O)c(C(=O)O)c3)o2)S1	-50.7
COc1ccc(CCNC(=O)C(=O)Nc2cc(OC)ccc2OC)cc1	-14.1
COc1ccc(C(NC(=O)c2ccccc2F)c2ccc(OC)c(OC)c2)cc1OC	-5.6
Cc1cc(C)n(-c2nc3nonc3nc2Nc2cccc(C(F)(F)F)c2)n1	6.4
O=C(c1ccc(Cl)cc1)c1cc2ccccc2o1	14.8
COc1cc(C=O)cc(Br)c1OCc1ccc([N+](=O)[O-])cc1	-7.9
CCc1ccc(CNCc2ccc3c(c2)OCO3)cc1	-9.2
Cc1c(O)nc(Nc2nc(C)c3ccccc3n2)[nH]c1=O	9
COCCNC(=O)CN(c1ccc(Br)cc1)S(C)(=O)=O	2.8
CC1=C(C(=O)OC(C)C)C(c2ccccc2Cl)C2=C(CCCC2=O)N1 (configuration not stated)	0
O=C1CC(c2ccccc2)CC(O)=C1C=NCCC(c1ccccc1)c1ccccc1 (configuration not stated)	4.6
O=C(NN1C(=O)/C(=C\c2ccccn2)SC1=S)c1ccccc1	-15.1
CCOc1ccc(/C=N\NC(=O)C2CC(=O)N(c3ccc(Br)cc3)C2)cc1 (configuration not stated)	-0.4
CCOc1cc(C=C2C(=O)NC(=O)NC2=O)ccc1OCCOCCOc1ccc(C)cc1	-0.7
CCOC(=O)C(C)Sc1nnnn1-c1ccccc1 (configuration not stated)	1
COc1ccc(/C=C/C(=O)NC2CCCCCC2)cc1OC	5.8
CC1=NN(C(=O)c2ccc(Cl)cc2)C(O)(c2ccc(Cl)cc2)C1 (configuration not stated)	13.4

SMILES	displacement [%]
O=C(c1ccccc1F)N1CCN(c2c(Cl)cccc2[N+](=O)[O-])CC1	10.3
COc1ccc(/C=C(/NC(=O)c2ccc(C)cc2)C(=O)N2CCCCCC2)cc1OC	-4.9
CN(C)/C=N/c1sc2c(c1C#N)CC(C)(C)NC2(C)C	-10.7
O=C(O)CCCC(=O)Nc1ccc(C(=O)O)cc1	-8.5
O=C1/C(=C/C=C/c2ccccc2)SC(=S)N1C1CCS(=O)(=O)C1 (configuration not stated)	56.9
COC(=O)C1=C(O)/C(=C\c2ccc(C(=O)O)cc2)N=C1C	12.2
O=C(COc1ccc(Cl)cc1Br)NCc1ccccn1	-4.6
COc1ccc2c(c1)-c1c(ssc1=S)C(C)(C)N2C(=O)c1ccc(OC)c(OC)c1	-5.4
CC(C)c1ccc(N2C(=O)NC(=O)/C(=C/c3ccc(O)c(O)c3)C2=O)cc1	-20.3
COc1ccccc1Cc1noc(-c2ccccc2Cl)n1	0.7
CCCC(=O)c1c(Nc2ccccc2)cc(C)oc1=O	0.2
S=C(Nc1ccccc1)Nc1ccc(Br)cn1	16.4
O=C(C(=O)c1ccc(I)cc1)c1ccc(I)cc1	0.5
O=C1NC(=O)C(=Cc2cccc(OCc3ccc(F)cc3)c2)C(=O)N1	9.1
C=CCn1c(-c2ccncc2)n[nH]c1=S	-5.3
COc1ccc(CNC(=O)c2cnn3c2NC(c2ccco2)CC3C(F)(F)F)cc1 (configuration not stated)	3
C=CCOc1ccc2ccccc2c1/C=N/NS(=O)(=O)c1ccccc1	13.1
CCc1ccc(OCC(=O)Nc2ccc(C)cc2[N+](=O)[O-])cc1	4.8
Cc1ccc(NCc2cccnc2)c(Br)c1	14.4
COc1ccc(N2C(=O)S/C(=C\c3ccc(O)c(OC)c3)C2=O)cc1	-3.6
O=C(Cc1ccc(-c2ccccc2)cc1)Nc1ccc(F)cc1	-7
Cc1nc2ccccn2c(=O)c1N	6.2
COc1ccc(CNc2ccc(C)c(C)c2)c(OC)c1	6.3

SMILES	displacement [%]
COc1ccc(N2C(=O)NC(=O)/C(=C/c3cccc(C(F)(F)F)c3)C2=O)cc1	-13.4
O=c1c2c(nc3cc(-c4ccc(Br)cc4)[nH]n13)CCS2	-9.1
O=c1[nH][nH]c(=O)n1/N=C/c1ccccc1O	2.2
Cc1ccc(CNC(=O)CN(Cc2ccccc2)S(=O)(=O)c2ccc(C)cc2)cc1	9.2
COc1ccccc1NC(=O)CC1C(=O)Nc2ccccc2N1S(=O)(=O)c1ccc(C)cc1 (configuration not stated)	41.1
O=C(NCCCN1CCOCC1)c1nn2c(C(F)(F)F)cc(-c3cccs3)nc2c1Br	2.9
O=C(N=Nc1c(O)n(CN2CCCCCC2)c2ccc(Br)cc12)c1cccnc1	-0.4
CCN1C(=O)/C(=C\c2ccc(O)cc2O)SC1=S	3.7
O=C(Cn1c(NCCCO)nc2ccccc21)c1cccs1	-11.7
O=C(CCNc1ccc2ccccc2c1)c1ccc(Cl)c(Cl)c1	-16.2
COc1cc(CNC2C3CC4CC(C3)CC2C4)c([N+](=O)[O-])cc1OC (configuration not stated)	7.7
C=CCN1C(=O)/C(=C\c2cc(Br)c(OCc3ccc(F)cc3)c(OCC)c2)SC1=S	-3.9
O=C(Nc1cccc(C(=O)O)c1)/C(=C/c1cccc([N+](=O)[O-])c1)NC(=O)c1ccccc1	1.1
O=C(CC1CCCCC1)Nc1ccc(Br)cc1	1.4
Cc1cc(C)cc(CC2CC(=O)N(c3ccc([N+](=O)[O-])cc3)C2=O)c1 (configuration not stated)	9.6
O=C1C2C3C=CC(C2C(=O)N1c1ccccc1)C1C(=O)N(c2ccccc2)C(=O)C31 (configuration not stated)	-1.9
O=C(c1ccco1)N(C(=O)c1ccco1)c1cc(C(F)(F)F)ccc1Cl	-3.3
O=C(CCC(=O)Nc1ccccc1)N/N=C/c1ccncc1	2.1
CCOc1ccc(NC(=S)NC(NC(=O)c2ccccc2Br)C(Cl)(Cl)Cl)cc1 (configuration not stated)	0
Cc1cc(OCC(=O)Nc2cccc(F)c2)cc(C)c1Cl	4.1
